# Results are given in words; binding and its absence hold for the method and conditions named. Some entries that bind do so weakly or less than the wild type.
# T1: Gal4DBD-Rif2_(1-36) (Rif2 BAT motif) (S. cerevisiae) (UniProt Q06208)
# T1 sequence: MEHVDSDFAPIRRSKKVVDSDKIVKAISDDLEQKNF
# T2: full-length Mre11 (S. cerevisiae) (UniProt P32829)
# T2 sequence: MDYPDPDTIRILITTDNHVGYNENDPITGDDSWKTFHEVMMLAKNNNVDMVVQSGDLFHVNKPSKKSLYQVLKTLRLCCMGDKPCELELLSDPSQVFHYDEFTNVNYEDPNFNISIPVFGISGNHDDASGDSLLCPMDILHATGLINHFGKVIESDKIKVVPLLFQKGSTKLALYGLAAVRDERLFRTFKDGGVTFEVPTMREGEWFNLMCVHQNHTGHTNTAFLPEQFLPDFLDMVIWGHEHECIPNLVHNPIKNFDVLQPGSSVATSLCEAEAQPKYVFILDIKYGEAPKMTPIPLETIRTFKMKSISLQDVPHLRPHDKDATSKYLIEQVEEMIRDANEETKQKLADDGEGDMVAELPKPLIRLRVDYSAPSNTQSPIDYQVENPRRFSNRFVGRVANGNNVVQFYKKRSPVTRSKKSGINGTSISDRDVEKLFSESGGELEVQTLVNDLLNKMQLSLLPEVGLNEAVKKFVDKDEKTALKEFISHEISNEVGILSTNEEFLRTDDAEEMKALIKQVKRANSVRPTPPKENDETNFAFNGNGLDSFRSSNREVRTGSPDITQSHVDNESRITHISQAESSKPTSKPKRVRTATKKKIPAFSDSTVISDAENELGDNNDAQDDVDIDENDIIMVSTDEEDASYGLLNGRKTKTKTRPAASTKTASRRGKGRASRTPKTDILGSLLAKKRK
# T3: Gal4DBD-Rif2_(1-60) (Rif2 N-terminal region 1-60) (S. cerevisiae) (UniProt Q06208)
# T3 sequence: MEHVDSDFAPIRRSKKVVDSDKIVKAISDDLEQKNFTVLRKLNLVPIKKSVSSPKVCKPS
# T4: Gal4DBD-Rif2_(1-60) F8A (S. cerevisiae) (UniProt Q06208)
# T4 sequence: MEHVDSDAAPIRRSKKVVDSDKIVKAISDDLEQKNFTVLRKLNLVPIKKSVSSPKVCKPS
# T5: Gal4DBD-Rif2_(1-60) L44A (S. cerevisiae) (UniProt Q06208)
# T5 sequence: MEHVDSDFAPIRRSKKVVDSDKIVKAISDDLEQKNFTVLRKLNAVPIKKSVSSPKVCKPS
# T6: Gal4DBD-Rif2_(1-60) R12A (S. cerevisiae) (UniProt Q06208)
# T6 sequence: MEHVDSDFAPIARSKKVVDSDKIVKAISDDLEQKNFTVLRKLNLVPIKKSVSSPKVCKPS
# Key:
# Test in all cases: two-hybrid; strain Y190, growth on synthetic glucose plates with adenine and 3-AT (25 and 50 mM); Gal4DBD-Rif2 fragments against pACT2-RAD50 and its derivatives, Rap1 366-827 or Mre11; WT cells, also cells lacking Mre11 and Xrs2 or the endogenous Rad50
# [1] = target: T1, Gal4DBD-Rif2_(1-36) (Rif2 BAT motif) (S. cerevisiae)
# [2] = target: T2, full-length Mre11 (S. cerevisiae)
# [3] = target: T3, Gal4DBD-Rif2_(1-60) (Rif2 N-terminal region 1-60) (S. cerevisiae)
# [4] = target: T4, Gal4DBD-Rif2_(1-60) F8A (S. cerevisiae)
# [5] = target: T5, Gal4DBD-Rif2_(1-60) L44A (S. cerevisiae)
# [6] = target: T6, Gal4DBD-Rif2_(1-60) R12A (S. cerevisiae)
Binder,binding [1],binding [2],binding [3],binding [4],binding [5],binding [6]
"mutant full-length Rad50 S8L (protein, UniProt P12753 1-1312) MSAIYKLLIQGIRSFDSNDRETIEFGKPLTLIVGMNGSGKTTIIECLKYATTGDLPPNSKGGVFIHDPKITGEKDIRAQVKLAFTSANGLNMIVTRNIQLLMKKTTTTFKTLEGQLVAINNSGDRSTLSTRSLELDAQVPLYLGVPKAILEYVIFCHQEDSLWPLSEPSNLKKKFDEIFQAMKFTKALDNLKSIKKDMSVDIKLLKQSVEHLKLDKDRSKAMKLNIHQLQTKIDQYNEEVSEIESQLNEITEKSDKLFKSNQDFQKILSKVENLKNTKLSISDQVKRLSNSIDILDLSKPDLQNLLANFSKVLMDKNNQLRDLETDISSLKDRQSSLQSLSNSLIRRQGELEAGKETYEKNRNHLSSLKEAFQHKFQGLSNIENSDMAQVNHEMSQFKAFISQDLTDTIDQFAKDIQLKETNLSDLIKSITVDSQNLEYNKKDRSKLIHDSEELAEKLKSFKSLSTQDSLNHELENLKTYKEKLQSWESENIIPKLNQKIEEKNNEMIILENQIEKFQDRIMKTNQQADLYAKLGLIKKSINTKLDELQKITEKLQNDSRIRQVFPLTQEFQRADLEMDFQKLFINMQKNIAINNKKMHELDRRYTNALYNLNTIEKDLQDNQKSKEKVIQLLSENLPEDCTIDEYNDVLEETELSYKTALENLKMHQTTLEFNRKALEIAERDSCCYLCSRKFENESFKSKLLQELKTKTDANFEKTLKDTVQNEKEYLHSLRLLEKHIITLNSINEKIDNSQKCLEKAKEETKTSKSKLDELEVDSTKLKDEKELAESEIRPLIEKFTYLEKELKDLENSSKTISEELSIYNTSEDGIQTVDELRDQQRKMNDSLRELRKTISDLQMEKDEKVRENSRMINLIKEKELTVSEIESSLTQKQNIDDSIRSKRENINDIDSRVKELEARIISLKNKKDEAQSVLDKVKNERDIQVRNKQKTVADINRLIDRFQTIYNEVVDFEAKGFDELQTTIKELELNKAQMLELKEQLDLKSNEVNEEKRKLADSNNEEKNLKQNLELIELKSQLQHIESEISRLDVQNAEAERDKYQEESLRLRTRFEKLSSENAGKLGEMKQLQNQIDSLTHQLRTDYKDIEKNYHKEWVELQTRSFVTDDIDVYSKALDSAIMKYHGLKMQDINRIIDELWKRTYSGTDIDTIKIRSDEVSSTVKGKSYNYRVVMYKQDVELDMRGRCSAGQKVLASIIIRLALSETFGANCGVIALDEPTTNLDEENIESLAKSLHNIINMRRHQKNFQLIVITHDEKFLGHMNAAAFTDHFFKVKRDDRQKSQIEWVDINRVTY",binds,binds,–,–,–,–
"Rad50∆CC (Rad50_(1–189-KILCY-1125-1312)), two-hybrid clone (domain or fragment, UniProt P12753 1-189; P12753 1125-1312) MSAIYKLSIQGIRSFDSNDRETIEFGKPLTLIVGMNGSGKTTIIECLKYATTGDLPPNSKGGVFIHDPKITGEKDIRAQVKLAFTSANGLNMIVTRNIQLLMKKTTTTFKTLEGQLVAINNSGDRSTLSTRSLELDAQVPLYLGVPKAILEYVIFCHQEDSLWPLSEPSNLKKKFDEIFQAMKFTKALDKILCYDDIDVYSKALDSAIMKYHGLKMQDINRIIDELWKRTYSGTDIDTIKIRSDEVSSTVKGKSYNYRVVMYKQDVELDMRGRCSAGQKVLASIIIRLALSETFGANCGVIALDEPTTNLDEENIESLAKSLHNIINMRRHQKNFQLIVITHDEKFLGHMNAAAFTDHFFKVKRDDRQKSQIEWVDINRVTY",binds,–,–,–,–,–

# Now from value to binder:
binding [1],binding [2],binding [3],binding [4],binding [5],binding [6],Binder
binds,binds,–,–,–,–,"mutant full-length Rad50 T95L (protein, UniProt P12753 1-1312) MSAIYKLSIQGIRSFDSNDRETIEFGKPLTLIVGMNGSGKTTIIECLKYATTGDLPPNSKGGVFIHDPKITGEKDIRAQVKLAFTSANGLNMIVLRNIQLLMKKTTTTFKTLEGQLVAINNSGDRSTLSTRSLELDAQVPLYLGVPKAILEYVIFCHQEDSLWPLSEPSNLKKKFDEIFQAMKFTKALDNLKSIKKDMSVDIKLLKQSVEHLKLDKDRSKAMKLNIHQLQTKIDQYNEEVSEIESQLNEITEKSDKLFKSNQDFQKILSKVENLKNTKLSISDQVKRLSNSIDILDLSKPDLQNLLANFSKVLMDKNNQLRDLETDISSLKDRQSSLQSLSNSLIRRQGELEAGKETYEKNRNHLSSLKEAFQHKFQGLSNIENSDMAQVNHEMSQFKAFISQDLTDTIDQFAKDIQLKETNLSDLIKSITVDSQNLEYNKKDRSKLIHDSEELAEKLKSFKSLSTQDSLNHELENLKTYKEKLQSWESENIIPKLNQKIEEKNNEMIILENQIEKFQDRIMKTNQQADLYAKLGLIKKSINTKLDELQKITEKLQNDSRIRQVFPLTQEFQRADLEMDFQKLFINMQKNIAINNKKMHELDRRYTNALYNLNTIEKDLQDNQKSKEKVIQLLSENLPEDCTIDEYNDVLEETELSYKTALENLKMHQTTLEFNRKALEIAERDSCCYLCSRKFENESFKSKLLQELKTKTDANFEKTLKDTVQNEKEYLHSLRLLEKHIITLNSINEKIDNSQKCLEKAKEETKTSKSKLDELEVDSTKLKDEKELAESEIRPLIEKFTYLEKELKDLENSSKTISEELSIYNTSEDGIQTVDELRDQQRKMNDSLRELRKTISDLQMEKDEKVRENSRMINLIKEKELTVSEIESSLTQKQNIDDSIRSKRENINDIDSRVKELEARIISLKNKKDEAQSVLDKVKNERDIQVRNKQKTVADINRLIDRFQTIYNEVVDFEAKGFDELQTTIKELELNKAQMLELKEQLDLKSNEVNEEKRKLADSNNEEKNLKQNLELIELKSQLQHIESEISRLDVQNAEAERDKYQEESLRLRTRFEKLSSENAGKLGEMKQLQNQIDSLTHQLRTDYKDIEKNYHKEWVELQTRSFVTDDIDVYSKALDSAIMKYHGLKMQDINRIIDELWKRTYSGTDIDTIKIRSDEVSSTVKGKSYNYRVVMYKQDVELDMRGRCSAGQKVLASIIIRLALSETFGANCGVIALDEPTTNLDEENIESLAKSLHNIINMRRHQKNFQLIVITHDEKFLGHMNAAAFTDHFFKVKRDDRQKSQIEWVDINRVTY"
–,–,binds,binds,no binding,binds,"Rap1 (fragment 366–827) (domain or fragment, UniProt P11938 366-827) EEDEFILDVVRKNPTRRTTHTLYDEISHYVPNHTGNSIRHRFRVYLSKRLEYVYEVDKFGKLVRDDDGNLIKTKVLPPSIKRKFSADEDYTLAIAVKKQFYRDLFQIDPDTGRSLITDEDTPTAIARRNMTMDPNHVPGSEPNFAAYRTQSRRGPIAREFFKHFAEEHAAHTENAWRDRFRKFLLAYGIDDYISYYEAEKAQNREPEPMKNLTNRPKRPGVPTPGNYNSAAKRARNYSSQRNVQPTANAASANAAAAAAAAASNSYAIPENELLDEDTMNFISSLKNDLSNISNSLPFEYPHEIAEAIRSDFSNEDIYDNIDPDTISFPPKIATTDLFLPLFFHFGSTRQFMDKLHEVISGDYEPSQAEKLVQDLCDETGIRKNFSTSILTCLSGDLMVFPRYFLNMFKDNVNPPPNVPGIWTHDDDESLKSNDQEQIRKLVKKHGTGRMEMRKRFFEKDLL"

# — PMC8115599, “Mechanism of MRX inhibition by Rif2 at telomeres” (Nature Communications, 2021)
